Source: PubChem BioAssay AID360 (National Center for Advancing Translational Sciences (NCATS), 2006)
Among all 48,000 compounds or so, about 550 (1.1%) were called active. Not shown: some 4% with an inconclusive outcome. Rule as the data show it: active = potency below about 15 µM; inconclusive = mostly about 16 µM to 33 µM; inactive = weaker than that. The list shows a part of the results.

target: Lysosomal acid glucosylceramidase (Homo sapiens) (UniProt P04062); assay: Glucocerebrosidase; conditions: purified enzyme, resorufin glucoside fluorescence (screen aimed at inhibitors), 20 min;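 also: the screen sought inhibitors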
Method in brief: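 Compounds titrated against 0.2 nM normal enzyme, 30 uM resorufin beta-D-glucopyranoside substrate, citrate/phosphate buffer with taurocholate and tween-20, pH 5.9. Reaction ran 20 min at room temperature; fluorescence (Ex 548/Em 600) gave AC50.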
Potency is read from the fitted curve at half-maximal effect.

Chain of UniProt P04062 (P04062 whole entry, looked up): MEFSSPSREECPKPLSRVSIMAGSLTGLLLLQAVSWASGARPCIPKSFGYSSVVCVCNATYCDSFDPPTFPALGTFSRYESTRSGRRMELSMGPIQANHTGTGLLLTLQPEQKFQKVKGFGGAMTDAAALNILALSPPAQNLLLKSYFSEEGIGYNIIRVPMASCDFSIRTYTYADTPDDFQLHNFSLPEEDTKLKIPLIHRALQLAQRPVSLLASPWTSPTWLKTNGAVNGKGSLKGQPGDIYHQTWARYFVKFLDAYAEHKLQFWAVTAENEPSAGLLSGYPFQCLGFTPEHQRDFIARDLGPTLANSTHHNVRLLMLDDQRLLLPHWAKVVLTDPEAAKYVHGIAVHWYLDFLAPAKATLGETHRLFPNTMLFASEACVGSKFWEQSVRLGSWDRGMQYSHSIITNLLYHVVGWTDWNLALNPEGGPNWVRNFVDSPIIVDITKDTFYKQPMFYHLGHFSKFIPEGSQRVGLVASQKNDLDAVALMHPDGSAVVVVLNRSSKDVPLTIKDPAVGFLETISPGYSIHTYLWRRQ

Potency, inactive:
CCn1nc(C(=O)N2CCN(Cc3ccc4c(c3)OCO4)CC2)c2ccccc2c1=O > 76.9 µM
COC(=O)c1ccc(NC(=O)CN(c2ccc(OC)cc2)S(C)(=O)=O)cc1 > 76.9 µM
Cc1cc(-n2c(C)cc(C(=O)CN3C(=O)NC4(CCCCC4C)C3=O)c2C)no1 (centres undefined) > 76.9 µM
CC(=O)C1=C(c2ccccc2)NC(=O)NC1c1ccccc1OCC#N (centres undefined) > 76.9 µM
COc1ccc(C(=O)N2CC3(C)CC2CC(C)(C)C3)cc1 (centres undefined) > 76.9 µM
CCn1nc(C(=O)Nc2ccc(S(=O)(=O)Nc3nccs3)cc2)c2ccccc2c1=O > 76.9 µM
CC(C)c1ccc(NC(=O)CSc2nnc(-c3ccccn3)n2C)cc1 > 76.9 µM
CC1(C)CC(CCNC(=O)c2ccc(-n3cnnn3)cc2)CC(C)(C)N1 > 76.9 µM
CCS(=O)(=O)Nc1ccc(C(=O)CC2(O)C(=O)Nc3ccccc32)cc1 (centres undefined) > 76.9 µM
Cc1ccc2cc(CN(CC3CCCO3)S(=O)(=O)c3cccc4nsnc34)c(=O)[nH]c2c1 (centres undefined) > 76.9 µM
O=C(c1cc2n(n1)C(C(F)(F)F)CC(c1ccc(F)cc1)N2)N1CCCC1 (centres undefined) > 76.9 µM
Cn1c(=O)c2c(nc(N3CCc4ccccc4C3)n2Cc2ccccc2F)n(C)c1=O > 76.9 µM
CC(C)(C)C1=C(C#N)C(c2cc3c(cc2Br)OCO3)C(C#N)=C(N)O1 (centres undefined)
Cc1ccc(S(=O)(=O)c2cc3c(=O)n4cc(C)ccc4nc3n(CC3CCCO3)c2=N)cc1 (centres undefined) > 76.9 µM
O=C(O)CCc1ccc(-c2ccc(F)cc2)n1Cc1ccco1 > 76.9 µM
C=C(C)COc1ccc(-c2[nH]ncc2-c2ccc(OC)c(OC)c2)c(O)c1 > 76.9 µM
Cc1cccc(C)c1N1CCN(S(=O)(=O)c2ccc(F)cc2)CC1 > 76.9 µM
CN1CCc2c(sc3nc(SCC(N)=O)n(-c4ccccc4)c(=O)c23)C1 > 76.9 µM
Cc1cc(C)n(C(=O)CN2C(=O)COc3ccccc32)n1 > 76.9 µM
CCCCNC(=O)C1C2C=CC3(CN(Cc4ccc(C)cc4)C(=O)C13)O2 (centres undefined) > 76.9 µM
O=C(N1CCOCC1)C1(c2ccccc2)CCCCC1 > 76.9 µM
CCCC(c1nnnn1Cc1ccccc1)N1CCN(c2ccccc2OC)CC1 (centres undefined) > 76.9 µM
COCCN1CC(O)=C(c2nc3ccccc3c(=O)[nH]2)C1=N > 76.9 µM
COc1cc(C(=O)Nc2ccc(NC(=O)C3CC3)nc2)cc(OC)c1OC > 76.9 µM
O=S(=O)(c1ccc2c(c1)OCCO2)N1CCC(c2nc3ccccc3s2)CC1 > 76.9 µM
Cc1ccc(C(N)=S)c(C)c1 > 76.9 µM
Cn1ncc2c1ncn1c(-c3ccccc3Cl)nnc21 > 76.9 µM
CCOC(=O)C1CCCN(CCC(=O)Nc2ccc(F)c(F)c2)C1 (centres undefined) > 76.9 µM
C=CCn1c(-c2ccc(Cl)cc2)c[nH]c1=S > 76.9 µM
Cc1cc(C)n(-c2ccc(C(=O)OCC(=O)N(CC(C)C)C3CCS(=O)(=O)C3)cc2)n1 (centres undefined) > 76.9 µM
CCOC(=O)c1c(C)c(C(=O)NCCCOC)c(C)n1C > 76.9 µM
CC(=O)c1ccc2c3c(cccc13)C(=O)N(c1c(C)nn(C)c1C)C2=O > 76.9 µM
CC(C)N1C(=S)SC(C)(C)C1NO (centres undefined) > 76.9 µM
Cc1ccc2nc(NC(=O)C3CCCN(S(=O)(=O)c4cccc5nsnc45)C3)sc2c1 (centres undefined) > 76.9 µM
N#Cc1c(N)n(CCNC(=O)c2cccs2)c2nc3ccccc3nc12
Cc1cc2cc(CN(CC3CCCO3)C(=O)c3cnccn3)c(=O)[nH]c2cc1C (centres undefined) > 76.9 µM
O=c1cc(O)nc(SC23CC4CC(CC(C4)C2)C3)[nH]1 > 76.9 µM
O=C(Cn1c(=O)sc2ccccc21)Nc1ccccc1C(=O)O > 76.9 µM
O=C(NCC1CCCO1)C1c2ccccc2C(=O)N1Cc1ccc2c(c1)OCO2 (centres undefined) > 76.9 µM
Cc1c(NC(=O)c2ccccc2NS(=O)(=O)c2ccc(F)cc2)c(=O)n(-c2ccccc2)n1C > 76.9 µM
Cc1cc(C)c2c(CC(=O)NCc3ccco3)coc2c1 > 76.9 µM
Cc1ccc(NC2=NC(c3ccc(O)cc3)n3c(nc(C)cc3=O)N2)cc1 (centres undefined) > 76.9 µM
CCS(=O)(=O)N1CCCC(C(=O)NCCCN(C)Cc2ccccc2)C1 (centres undefined) > 76.9 µM
C=CCn1c(=O)[nH]c2cc(C(=O)N3CCN(c4cc(C)ccc4C)CC3)ccc2c1=O > 76.9 µM
Cc1nn(-c2ccccc2)c2nc(-c3ccco3)cc(C(=O)O)c12 > 76.9 µM
COc1ccc(N2C(=NC(C)=O)SC3CS(=O)(=O)CC32)cc1OC (centres undefined) > 76.9 µM
COCC(=O)N(CCc1ccc(OC)cc1)Cc1nc2ccccc2c(=O)[nH]1 > 76.9 µM
c1ccc(OCCCCn2cnc3ccccc32)cc1 > 76.9 µM
Cc1cccc(OCC(O)Cn2c(-n3nc(C)cc3C)nc3c2c(=O)[nH]c(=O)n3C)c1 (centres undefined) > 76.9 µM
CCOC(=O)C(NC(C)=O)(OCc1ccc(F)cc1)C(F)(F)F (centres undefined) > 76.9 µM
CCc1c(C)nc(Nc2nc(C)c3cc(OC)ccc3n2)[nH]c1=O > 76.9 µM
COC(=O)c1ccc2c(c1)nc(C)n2CCO > 76.9 µM
CC(C)C(=O)N1CCN(c2ccccc2NC(=O)Cc2ccc(Cl)cc2)CC1 > 76.9 µM
CC(=O)c1ccc(NC2OC(C)C(O)C(O)C2O)cc1 (centres undefined) > 76.9 µM
CC(=O)c1cccc(N(CC(=O)N2CCCC2)S(C)(=O)=O)c1 > 76.9 µM
CCOC(=O)CNc1nc(OCC#N)nc(N2CCOCC2)n1 > 76.9 µM
CC(=O)Nn1c(COc2ccccc2C)nc2ccccc2c1=O > 76.9 µM
CCCCCc1nc2ccccc2c(=O)n1N > 76.9 µM
CC(=O)Nc1c(O)nc(SCC(=O)N2CCN(c3ccc(F)cc3)CC2)[nH]c1=O > 76.9 µM
O=C(CN(C(=O)CNS(=O)(=O)c1ccccc1)C1CCCC1)NCC1CCCO1 (centres undefined) > 76.9 µM
Cc1cccc2cc(COC(=O)C(C)C)c(=O)[nH]c12 > 76.9 µM
COc1ccc(-c2nnc(Nc3nc4c(OC)cccc4s3)o2)c(OC)c1 > 76.9 µM
CC1(C)CC(=O)C2=C(C1)Oc1ncn(CCCn3ccnc3)c(=N)c1C2c1ccccc1 (centres undefined) > 76.9 µM
O=c1c2ccccc2ncn1Cc1nc2ccccc2s1 > 76.9 µM
CCCCCn1c(SCCCC)nc2c1c(=O)[nH]c(=O)n2C > 76.9 µM
COc1ccc(NC(=O)Nc2nnc(C(C)C)s2)cc1 > 76.9 µM
Cc1ccc(-n2nc3c(c2NC(=O)c2ccc4c(c2)OCO4)CS(=O)C3)cc1 (centres undefined) > 76.9 µM
COC(=O)c1sc(NC(=O)Cc2cccs2)nc1C > 76.9 µM
COc1ccc(Cl)cc1CSc1n[nH]c(C)n1 > 76.9 µM
Cc1c(NC(=O)CCC2CCCCC2)c(=O)n(-c2ccccc2)n1C > 76.9 µM
C1CCc2c(nnc3c2-c2nonc2CC3)C1 > 76.9 µM
COC(=O)c1nnn(CC(=O)Nc2ccc(C)c(F)c2)c1C(=O)OC > 76.9 µM
CCCC(=O)N1CC2(CCC)CN(C(=O)CCC)CC(CCC)(C1)C2=O > 76.9 µM
CCOC(=O)c1ccc(NC(=O)Nc2cc(C)on2)cc1
O=C(c1ccccc1F)N1CCC(O)(c2cccnc2)CC1 > 76.9 µM
Cc1occc1C(=O)NC1CCCc2ccccc21 (centres undefined) > 76.9 µM
CC12CC(NC(=O)N1c1cccc(C(=O)N3CCN(c4ccccn4)CC3)c1)c1ccccc1O2 (centres undefined) > 76.9 µM
COc1ccc(C(c2nnnn2Cc2ccccc2)N2CCN(c3ccccc3)CC2)cc1 (centres undefined) > 76.9 µM
COc1ccccc1N(CCC#N)C(=O)CSc1nc(-c2ccccc2)cn1N > 76.9 µM
CN1C(=O)CC(n2c(CO)nc3ccccc32)C1=O (centres undefined) > 76.9 µM
O=C1CC(N(O)c2ccccc2)C(=O)N1c1cc(Cl)cc(Cl)c1 (centres undefined) > 76.9 µM
O=C(Nc1nc2cc3c(cc2s1)OCCO3)c1cccc(S(=O)(=O)N2CCOCC2)c1 > 76.9 µM
CC(C)(C)n1nc2c(c1NC(=O)c1ccco1)CS(=O)C2 (centres undefined) > 76.9 µM
Cc1cc(C)c2cc(CN(CCO)C(c3nnnn3Cc3ccc(F)cc3)C(C)C)c(=O)[nH]c2c1 (centres undefined) > 76.9 µM
COc1ccccc1-n1c(SCC(N)=O)nnc1-c1ccc(S(=O)(=O)N2CCCCC2)cc1 > 76.9 µM
COc1ccc(CCNC(=O)Cn2nnc(-c3cccs3)n2)cc1OC > 76.9 µM
O=C(Nc1ccc(Cl)cc1)N1CCCC1 > 76.9 µM
NC(=O)CSC1=Nc2ccccc2C2=NC(CCC(=O)NCc3ccc(F)cc3)C(=O)N12 (centres undefined) > 76.9 µM
COc1cc(C2=NOC(C(=O)NCc3ccco3)C2)cc(OC)c1OC (centres undefined) > 76.9 µM
